Values marked as one replicate rest on one cluster of the flow cell; about a third of the high ones do not repeat.
System: ATP
Assay: switch fluorescence ratio, 500 uM ATP over buffer (Cy3 cluster intensity, sum of 5 cycles each) (fold (ratio)); higher = stronger signal-on switching upon ATP binding; sequences stand for … in TCGTCGGCAGCGTCAGATGTGTATAAGAGACAGTTTTTTTTTTTTTTTTTTTTTTTTT…TC
Settings: aptamer strand: ATP DNA aptamer (quencher-CACCTGGGGGAGTATTGCGGAGGAAGG + anchor), 100 nM annealed; ATP concentration: 500 uM; one replicate
Method in brief: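 Exposure to 500 uM ATP lasted 15 min at 22 °C before imaging, and a selection-buffer image was taken beforehand, for Cy3-labelled switching-strand clusters on a modified Illumina MiSeq flow-cell annealed to 100 nM quencher-labelled ATP aptamer. Five buffer/ATP cycles were run with NaOH stripping and re-annealing between them. The fluorescence ratio per cluster is summed target-cycle over summed buffer-cycle Cy3 intensity, averaged per switch-domain sequence. Clusters outside 100-1000 RFU were excluded.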

Sequence	switch fluorescence ratio
TGTAGTTAC	3.99
GCGTTAGATA	1.05
TTGCTAATGT	0.987
AACATTGAAA	0.998
TATCACGTAC	1.62
GCGCCTATCG	0.966
GGACTTGGAT	0.974
TAATATACTT	1.13
TGAGTTTTGA	0.982
TCATATGTGA	0.966
GCCCTATCGG	0.995
TGGTTTATCA	0.972
CGATCAGACC	1.04
ACTAAGAGGC	1.01
TTTCTTTTT	0.937
AAACGAGGAA	0.988
ACAGAGGC	1
ATCTGTGACG	0.881
TCACTTCCAA	1.16
GAGCTAACGA	1.04
TAATTTGTCT	1
TCACTGTTCG	0.978
ACTGGTCCGT	1.04
CGGTTTGACG	1.01
AACCAGTGC	1.19
TAGGTTATTC	0.97

Sequence	switch fluorescence ratio
GTTCGCCTTA	1.03
TAACATAAAG	0.953
CGATGAAAGT	0.957
TGCAATCTTG	1.03
CCAACGTGAC	3.57
CAAGTCAGAA	1.03
ACTACGAATA	1.77
AGGATCAGCG	1.02
AAAATGTCAC	1.03
TCTGCGACC	1.05
TTCCTCGTAA	1.33
TGCCGAGGTA	1.01
GCGTGAAGCA	1.05
AGCAAATTTA	1.08
CACAGATTGA	0.991
AATGTTGGAC	1.01
ACTCAAGCGT	1.15
ATGGCACCAT	0.99
AAAATGAATC	0.978
TGCGCTTAGG	0.974
CGTTGTGC	1.1
GCTGCGGTGG	1.03
AACGTGCAGC	1.01
GGGATGCATA	0.998
TAAAATCAAA	0.96
TACTACATGA	1.07

Sequence	switch fluorescence ratio
CATCAACCTA	1
CGTCGTCTCA	0.985
CGGCCGGATA	1.01
ACGGTAAAGT	1.06
GAGGTTGTGA	0.949
TGAAGTCTAG	0.976
AGACCGGTC	1.03
GGGAAGGCCT	1.04
AACCCGGTCC	1.19
ACATTTTGTC	1
TGACATATA	1.15
ACCCCGGATA	1.07
TGAACAGATA	1.03
ACCTGTAGGG	1.08
TAAGCAGCGT	1.04
GATATGCATA	1.06
AAATGGTATG	0.965
TCAACGTTGT	0.992
CCCTGTTAGC	1.19
AGCTGGTATG	0.946
CCATCCTACG	2.91
TCTAATGATG	0.95
AGTAATGTCT	0.988
TGTCAGGGTG	1.09
CCATCCTTCG	2.54
GGACTCTGCA	1.76

Sequence	switch fluorescence ratio
TGGCGAACTC	1.03
ATCGATTGAA	0.945
TCGCGCTTAA	1.12
CTCGTTTTAT	0.991
GGTTATGACT	1.07
CGCCTGGCTC	1
TTGACTGTTG	1.02
GCGGGACTTT	0.952
CTGGCCGAGT	1.02
CCGCATTAAA	5.3
CTTATTTCGG	1.05
CTGCCCAACG	1.04
GCCTCATAG	1.02
AATGGCCTCG	0.964
GCGGCTAGCG	1.02
GATTTAAGCG	1
AATTACCCCT	1.06
AGGATCGTGT	1.01
GCAGTAGTAA	1.05
CCCGGAGGTG	2.39
AACCCATAGC	1.08
CGTACGGGAG	1.04
AAGGAGAACG	1.01
GTTGTGTGGT	0.965
CTTGGTTTAA	0.914
TGGGGTGCGT	1

Sequence	switch fluorescence ratio
TGATGTAT	1.02
CCGTTTGCGA	2.4
GCTGTACGAC	3.5
CCAAGATCGG	0.992
GATAATCGAT	1.01
CATAAGCCGA	0.995
GCGCTATGTC	1.32
TACACTGAGT	1.04
ACCACAATTA	1.06
CTTTCTATCG	1.06
GCTTCGGAAA	1.02
GCATCACGCT	1.07
GTTTATTGAT	0.951
ATCGCCTGAG	1.08
GTGAAAAAGC	1
CATACAGAGA	0.924
AGATGTATGG	0.984
GCAGGTAGCT	1.02
CGTGTGCGCA	1
TTTGTCTCAG	1
GTATGTCGAA	1
CCCATTCCCT	1.06
TCATTAAAGA	0.959
GCAACTTTGG	0.996
CGAGCGTCGG	1.02
GTGACCATGT	0.99

Sequence	switch fluorescence ratio
CCAGGGCGTC	0.971
TCCTAGGTAT	0.986
TGTGATGGGG	0.973
ACATGTCGCT	1.06
CATTGGTGAA	0.968
AATTATTTGG	0.993
GGCTTAGGTA	0.987
TCAGTAGGTG	1.05
TGCGGCTGCT	0.966
AAGGAAGTTG	1.05
GCTGGCAAGA	1
CACCTCGCCA	1.19
GTCGCGCTAG	0.977
AAACAGGGG	1.19
TTTTGAATAG	0.972
CTTAGAACTC	1.01
GGTAACACTG	1.03
TTTGACATAG	1.02
CCTTTACGCT	1.52
GTTTGCCCAG	0.991
AGGAAAAGAG	1.01
GCCTAATCGG	1.05
GATGCATAGC	1.07
